The campaign covered roughly 200,000 compounds. About 10 (0.005%) were called active. The shares of active, inactive and inconclusive entries below differ from those in the screen. Calls follow the shape of the dose curve; as a rule, active = well fitted inhibition curve with a large enough effect; inconclusive = small, poorly fitted or top-dose-only effect, or effect the other way, or another doubt; inactive = no such curve, though single readings can be large or run the other way. No potency is given beside an inconclusive call; the fits are too rough. Square brackets hold non-standard residues; d marks the D form. Peptide text beside a SMILES is read from it. * marks the point of attachment. Phe(4-Me) = Cc1ccc(C[CH](N)C(=O)O)cc1; Bz = O=C(c1ccccc1)*
target: Lysosomal alpha-glucosidase (Homo sapiens) (UniProt P10253); assay: qHTS Assay for Inhibitors of Human alpha-Glucosidase as a Potential Chaperone Treatment of Pompe Disease; conditions: purified human GAA, 4-MU-alpha-glucoside fluorescence; activity change, negative = inhibition: at 76.9 µM (top of the series) unless noted;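 as to activity change, negative = inhibition: plate controls were uninhibited enzyme wells for no effect and no-enzyme background for full effect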
Method in brief: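 Fluorogenic assay: 4 nM human alpha-glucosidase with 400 uM 4-methylumbelliferyl-alpha-D-pyranoside in 50 mM citrate/phosphate, 0.005% Tween-20, pH 5.0, 20 min at room temperature. Compounds tested up to 77 uM; AC50 from Hill fits.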
Potency is read from the fitted curve at half-maximal effect; tags tell the direction and shape of the fitted curve.

Structure (SMILES) | Potency | activity change, negative = inhibition
CCN(CC)c1ccc(C=Nc2ccc(C#N)cc2)c(O)c1 | inconclusive [inhibitor, partial curve] | 
NNC(=O)c1nc(-c2ccccc2)n2c1CCCCC2 |  | inactive: 3.06%
OC(COc1cccc(OCC(O)CN2CCOCC2)c1)CN1CCOCC1 (stereo not given) | inconclusive [inhibitor, single point] | 
CC(=O)Nc1ccc(S(=O)(=O)NCCC(=O)OCCN2C(=O)c3ccccc3C2=O)cc1 | inconclusive [inhibitor, single point] | 
O=S(=O)(NC1CC1)c1ccc(S(=O)(=O)N2CCc3ccccc32)cc1 | inconclusive [inhibitor, partial curve, poor fit] | 
Cc1ccc(C(=O)O/N=C/c2ccc(N(C)C)cc2)cc1 | inconclusive [activator, single point] | 
CCCCN(CCCC)CCNC(=O)c1ccc2nc(-c3ccccc3NC(C)=O)c(=O)[nH]c2c1 |  | inconclusive: 16.6% [activator]
O=C(O)CSc1c[nH]c2ccccc12 |  | inconclusive: -21.4% [inhibitor]
COc1cc(/C=N/NC(N)=O)ccc1OC(=O)c1cccs1 | inconclusive [activator, partial curve] | 
COc1c(C(C)C)cc(NC(C)=O)cc1C(C)C |  | inactive: -0.519%
O=C(N/N=C/c1sc(=O)[nH]c1-[n+]1ccccc1)c1ccccc1[O-] | inconclusive [inhibitor, single point] | 
COc1ccc(/C=N/N(C)c2cc(=O)n(C)c(=O)[nH]2)cc1OC |  | inconclusive: 13.9% [activator]
CC(=O)c1ccc(NC(=S)NCCc2cccc(Cl)c2)cc1 | inconclusive [inhibitor, single point] | 
CCOC(=O)Cn1c(N2CCOCC2)nc2c1c(=O)[nH]c(=O)n2C | inconclusive [inhibitor, single point] | 
CCOC(=O)N1CCN(Cc2cn[nH]c2-c2ccc(-c3ccccc3)cc2)CC1 | inconclusive [inhibitor, partial curve, poor fit] | 
Cc1cc(=O)c2cc(Cl)ccc2[nH]1 | inconclusive [inhibitor, full curve, poor fit] | 
O=C(NCc1cccs1)C1CC(=O)N(C2CCCC2)C1 (stereo not given) | inconclusive [inhibitor, partial curve] | 
NC(=O)C1CCN(Cc2nc3cc(Cl)ccc3c(=O)[nH]2)CC1 | inconclusive [inhibitor, single point] | 
Cc1c(Nc2ncnc3c2cnn3-c2ccccc2)c(=O)n(-c2ccccc2)n1C | inconclusive [inhibitor, partial curve] | 
Cc1cccc(S(=O)(=O)C(C#N)c2nc3ccccc3nc2N2CCOCC2)c1 (stereo not given) | inconclusive [inhibitor, partial curve] | 

Structure (SMILES) | Potency | activity change, negative = inhibition
Cc1ccc(CC(NC(=O)c2ccccc2)C(=O)NC(Cc2ccccc2)C(=O)O)cc1 (stereo not given) (Bz-[Phe(4-Me)]-Phe-OH; configuration not given here) | inconclusive [inhibitor, single point] | 
N#Cc1c(-c2ccco2)cc(C2CC2)nc1N | inconclusive [activator, single point] | 
CN1c2ccc(Cl)cc2C(=O)NC1C1CC=CCC1 (stereo not given) |  | inconclusive: 19.6% [activator]
CCOC(=O)N1CCN(C(=O)c2ccc3nc4ccsc4c(=O)n3c2)CC1 | inconclusive [activator, single point] | 
CN(C)c1ccc(C(=O)Nc2nc3c(s2)CCCC3)cc1 | inconclusive [inhibitor, single point] | 
O=C(O)Cc1cn(Cc2ccc(F)cc2)c2ccccc12 |  | inactive: 0.0296%
COc1ccc(CNC(=O)C2CCC(CNS(=O)(=O)c3cccc4nsnc34)CC2)cc1 (stereo not given) | inconclusive [inhibitor, partial curve] | 
COCCNC(=O)C(c1ccc(F)cc1)N(C(=O)CCC(=O)Nc1nccs1)c1cccc(C)c1 (stereo not given) | inconclusive [inhibitor, single point] | 
COc1cc2c(cc1OC)C(C(=O)Nc1cccc(C)n1)C(c1cccnc1)N(C)C2=O (stereo not given) | inconclusive [inhibitor, single point] | 
COc1ccc(NC(=O)CSc2ccc3ccccc3c2)cc1S(=O)(=O)N1CCCCC1 | inconclusive [inhibitor, single point] | 
COc1ccc(-n2nc(C(=O)NCc3ccco3)c3c4ccccc4n(C)c3c2=O)cc1 | inconclusive [activator, partial curve] | 
CCOC(=O)c1ccccc1-c1csc(NS(=O)(=O)c2ccc(Cl)cc2)n1 | inconclusive [inhibitor, full curve] | 
C=CCn1c(=O)c(C(=O)Nc2cccnc2)c(O)c2ccccc21 | inconclusive [inhibitor, partial curve] | 
CN(C)C(=O)N1CCNCC1 |  | inconclusive: 16.6% [activator]
Cc1ccc(CSc2nnc(-c3cccc(S(=O)(=O)N4CCOCC4)c3)n2C2CCCC2)cc1 | inconclusive [inhibitor, single point] | 
Cc1cc(C)n2nc(SCn3nnc4ccccc4c3=O)nc2n1 | inconclusive [inhibitor, partial curve] | 
O=C(COC(=O)Cc1ccc(Cl)cc1)Nc1cc(S(=O)(=O)N2CCOCC2)ccc1N1CCCC1 | inconclusive [inhibitor, partial curve, poor fit] | 
COc1ccc(NC(=S)Nc2ccc3nc(C)c(C)nc3c2)cc1 | inconclusive [inhibitor, partial curve] | 
C/C=C/c1ccc(OCCCCN2CC(C)CC(C)C2)c(OC)c1 (stereo not given) | inconclusive [inhibitor, single point] | 
O=C(Cc1ccc(Br)cc1)c1ccc(O)cc1O | inconclusive [activator, single point] | 

— PubChem BioAssay AID1466 (National Center for Advancing Translational Sciences (NCATS), 2008)
